This note sets out measurements from US20160177276A1 (Merck KGaA, published 2016).

Experiment [1] has as its target T1, CD47 (human, UniProt Q08722).
T1 construct: whole, on cells; Human by the cells used (blood of human donors; human Ramos, A549, BT474, Raji, Namalwa cells); also called human CD47
Description: flow cytometry on CD47-transfected CHO cells, data not shown. As for the experimental part:
(§1) After washing again, cells were fixed with 1% formaldehyde in PBS. Cells were analyzed by flow cytometry (MACSQuant, Miltenyi Biotec, Cologne, Germany).
(In general: In flow cytometry, cells or beads pass a laser one at a time.)

Experiment [2] addresses T1, CD47. Description: flow cytometry on CD47-transfected CHO cells and leukocyte-enriched whole blood. As for the experimental part:
as §1, §1

In another experiment the target is T2, CD20 (human, UniProt P11836 1-297).
T2 construct: whole, on cells; The cells carry CD47 as well
T2 sequence (looked up): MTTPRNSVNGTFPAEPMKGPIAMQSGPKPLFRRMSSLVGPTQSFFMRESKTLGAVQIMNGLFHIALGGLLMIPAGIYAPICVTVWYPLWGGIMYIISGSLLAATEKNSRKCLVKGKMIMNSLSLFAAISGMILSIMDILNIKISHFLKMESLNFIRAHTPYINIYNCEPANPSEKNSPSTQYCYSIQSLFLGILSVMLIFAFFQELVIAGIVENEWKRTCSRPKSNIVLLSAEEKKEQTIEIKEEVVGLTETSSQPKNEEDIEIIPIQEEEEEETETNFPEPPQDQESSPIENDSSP
The experiment in a line: flow cytometry on cells that carry both CD20 and CD47.

The target in another experiment is T3, CD47 on mouse A20 cells (mouse, UniProt Q61735 19-303).
T3 construct: whole, on cells; Mouse by the cell line
T3 sequence (looked up): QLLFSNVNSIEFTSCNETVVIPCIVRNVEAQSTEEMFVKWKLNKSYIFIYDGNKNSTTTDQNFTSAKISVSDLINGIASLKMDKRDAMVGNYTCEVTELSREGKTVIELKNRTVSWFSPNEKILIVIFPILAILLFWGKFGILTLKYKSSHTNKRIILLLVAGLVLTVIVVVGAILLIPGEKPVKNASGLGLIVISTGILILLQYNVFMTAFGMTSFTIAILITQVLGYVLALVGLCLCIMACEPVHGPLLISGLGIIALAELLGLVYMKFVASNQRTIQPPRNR
Description: flow cytometry on mouse A20 cells that carry both PD-L1 and CD47. How it is done: After washing with PBS+1% FBS, cells were incubated with FITC F(ab′)2 goat Anti-Human IgG, Fcγ (Jackson ImmunoResearch, West Grove, Pa.), diluted 1:200 in PBS+1% FBS for 60 min on ice. After washing again, cells were fixed with 1% formaldehyde in PBS. Cells were analyzed by flow cytometry (MACSQuant, Miltenyi Biotec, Cologne, Germany).

B1: Fc-SIRPαV2CC (Fc fusion)
chain: [letters of human IgG1 Fc with C220S (EU numbers) omitted]GGGGSGGGGSGGGGSGGGGSEE[letters of about 120 residues omitted]KPSAPVVSGPAARATPQHTVSFTCESHGFSPRDITLKWFKNGNELSDFQTNVDPVGESVSYSIHSTAKVVLTREDVHSQVICEVAHVTLQGDPLRGTANLSETIRVPPTLEVTQQPVRAENQVNVTCQVRKFYPQRLQLTWLENGNVSRTETASTVTENKDGTYNWMSWLLVNVSAHRDDVKLTCQVEHDGQPAVSKSHDLKVSAHPKEQGSNTAAENTGSNERNIY
notes: Fc fusion whose SIRPα ECD has the IgV domain of allele V2 joined to the IgC domains of allele V1
In the case of B1, the binding result with CD47 [1] is given as “binds”.

B2: anti-CD20-huIgG1-SIRPαV2 (other)
heavy: QVQLQQPGAELVKPGASVKMSCKASGYTFTSYNMHWVKQTPGRGLEWIGAIYPGNGDTSYNQKFKGKATLTADKSSSTAYMQLSSLTSEDSAVYYCARSTYYGGDWYFNVWGAGTTVTVSAASTKGPSVFPLAPSSKSTSGGTAALGCLVKDYFPEPVTVSWNSGALTSGVHTFPAVLQSSGLYSLSSVVTVPSSSLGTQTYICNVNHKPSNTKVDKRV[letters of human IgG1 Fc omitted]GGGGSGGGGSGGGGSGGGGSEE[letters of about 120 residues omitted]
light: QIVLSQSPAILSASPGEKVTMTCRASSSVSYIHWFQQKPGSSPKPWIYATSNLASGVPVRFSGSGSGTSYSLTISRVEAEDAATYYCQQWTSNPPTFGGGTKLEIKRTVAAPSVFIFPPSDEQLKSGTASVVCLLNNFYPREAKVQWKVDNALQSGNSQESVTEQDSKDSTYSLSSTLTLSKADYEKHKVYACEVTHQGLSSPVTKSFNRGEC
notes: Antibody-SIRPα fusion (2B8/rituximab, IgV domain of SIRPαV2 on the heavy chain C-terminus by a (G4S)4 linker); tetramer
On to B2, for which the binding result in the experiment with CD47 [2] and in the experiment with CD20 was “binds” in each case.

B3: anti-PD-L1-huIgG1-muSIRPα (other)
heavy: EVQLLESGGGLVQPGGSLRLSCAASGFTFSSYIMMWVRQAPGKGLEWVSSIYPSGGITFYADTVKGRFTISRDNSKNTLYLQMNSLRAEDTAVYYCARIKLGTVTTVDYWGQGTLVTVSS[letters of human IgG1 constant region omitted]GGGGSGGGGSGGGGSGGGGSKELKVTQPEKSVSVAAGDSTVLNCTLTSLLPVGPIKWYRGVGQSRLLIYSFTGEHFPRVTNVSDATKRNNMDFSIRISNVTPEDAGTYYCVKFQKGPSEPDTEIQSGGGTEVYVL
light: QSALTQPASVSGSPGQSITISCTGTSSDVGGYNYVSWYQQHPGKAPKLMIYDVSNRPSGVSNRFSGSKSGNTASLTISGLQAEDEADYYCSSYTSSSTRVFGTGTKVTVLGQPKANPTVTLFPPSSEELQANKATLVCLISDFYPGAVTVAWKADGSPVKAGVETTKPSKQSNNKYAASSYLSLTPEQWKSHRSYSCQVTHEGSTVEKTVAPTECS
notes: Antibody-SIRPα fusion based on avelumab, with the IgV domain of murine SIRPα
For the molecule B3, the binding result in the experiment with CD47 on mouse A20 cells is on record as “binds”.
